Hit rate of the full screen: of about 360,000 compounds, about 25,000 (6.9%) were called active. Inconclusive means that the source gave no clear call. Such entries were picked first, then a sample of the others. The call rests on the fitted dose curve; in most records, active means well fitted inhibition curve with a large enough effect; inconclusive means small, poorly fitted or top-dose-only effect; inactive means flat fitted curve, though single readings scatter. Potencies of inconclusive entries are doubtful fits and often do not repeat.
What follows are compounds tested against Luciferin 4-monooxygenase (Photinus pyralis) (UniProt P08659) (assay: qHTS profiling assay for firefly luciferase inhibitor/activator using purifed enzyme and Km concentrations of substrates (counterscreen for miR-21 project)). Details: purified FLuc, luminescence inhibition; activity change, negative = inhibition: at 57.5 µM (top of the series).
Chain of UniProt P08659 (P08659 whole entry, looked up): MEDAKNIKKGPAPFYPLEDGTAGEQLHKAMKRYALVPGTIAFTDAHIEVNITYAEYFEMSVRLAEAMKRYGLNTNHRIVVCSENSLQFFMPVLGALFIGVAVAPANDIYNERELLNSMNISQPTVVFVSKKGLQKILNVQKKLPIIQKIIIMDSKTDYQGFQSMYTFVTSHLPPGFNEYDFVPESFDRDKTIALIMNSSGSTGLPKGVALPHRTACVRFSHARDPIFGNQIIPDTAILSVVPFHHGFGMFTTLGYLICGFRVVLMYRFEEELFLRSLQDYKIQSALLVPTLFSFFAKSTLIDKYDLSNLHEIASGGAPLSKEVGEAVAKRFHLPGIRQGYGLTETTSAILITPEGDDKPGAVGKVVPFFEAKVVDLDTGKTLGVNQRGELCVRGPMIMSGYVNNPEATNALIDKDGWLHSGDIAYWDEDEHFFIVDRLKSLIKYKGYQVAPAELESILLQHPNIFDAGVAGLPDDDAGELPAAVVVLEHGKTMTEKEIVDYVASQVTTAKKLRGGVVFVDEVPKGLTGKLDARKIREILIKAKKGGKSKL
Outline: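 Biochemical qHTS of compounds, final roughly 60 µM downward over six points, against 10 nM purified firefly luciferase using Km concentrations of substrates (10 uM D-luciferin, 10 uM ATP) in Tris acetate pH 7.5 buffer; luminescence output.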
Further: nearly all actives have a fitted effect of over 55% in size.
Potency means the concentration at half of the fitted maximal effect; tags describe the fitted curve by direction and shape.
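Wherever activity change, negative = inhibition is given: plate controls were vehicle for no effect and reference inhibitor for full effect.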

Question: `O=C(NC1CCCCC1)c1n[nH]c2c1CC(c1ccccc1)CC2` (centres undefined) was tested. Which Potency did it give?
Answer: Its Potency is active: 3.01 µM.

Question: With `Cc1ccc(N2CN=c3s/c(=C\c4ccccn4)c(=O)n3C2)cc1` as the compound, how does the Potency read?
Answer: Its Potency is inconclusive: 33.8 µM [inhibitor, single point].

Question: Which Potency does the source give for `Cc1cc2c(cc1C)NC(CC(=O)NCc1ccccc1)C(=O)N2` (centres undefined) here?
Answer: The Potency was inconclusive: 21.3 µM [inhibitor, partial curve].

Question: How did the Potency turn out when `COC(=O)c1cc(=O)c2c(C)nc(C(Cl)(Cl)Cl)nc2[nH]1` was run?
Answer: Its Potency is inconclusive: 23.9 µM [inhibitor, partial curve, poor fit].

Question: With `Cc1cc(N2C(=O)C3C4CCC(C4)C3C2=O)no1` (centres undefined) as the compound, how does the Potency read?
Answer: The Potency was “inactive”.

Question: How did the Potency turn out when `Cc1ccsc1/C=N/NC(=O)CC(=O)NCC(C)C` was run?
Answer: Its Potency is “inactive”.

Question: `CC1=NN(c2ccc(Cl)cc2)C(=O)C1C(c1cccc(O)c1)c1c(C)[nH]n(-c2ccc(Cl)cc2)c1=O` (centres undefined) was tested. Which Potency did it give?
Answer: Its Potency is inconclusive: 37.9 µM [inhibitor, partial curve, poor fit].

Question: With `CCc1ccc(N(CC(=O)Nc2ccc(OC)cc2OC)S(C)(=O)=O)cc1` as the compound, how does the Potency read?
Answer: Its Potency is “inactive”.

Question: For `COc1ccc2c(c1)CCc1sc(NC(=O)c3ccc(Cl)cc3)nc1-2`, which Potency is on record?
Answer: Its Potency is inconclusive: 5.36 µM [inhibitor, full curve].

Question: With `O=C1CN(c2nc(-c3cccs3)nc3sc4c(c23)CCCC4)CCN1` as the compound, how does the Potency read?
Answer: The Potency was active: 6.01 µM.

Question: For `CCC(C)NC(=O)Cc1c(C)c2cc3c(cc2oc1=O)OC(C)(C)CC3` (centres undefined), which Potency is on record?
Answer: The Potency was inconclusive: 26.9 µM [inhibitor, single point].

Question: `C=CCOc1c(Br)cc(/C=C2/C(=O)ON=C2C)cc1OC` was tested. Which Potency did it give?
Answer: Its Potency is inconclusive: 21.3 µM [inhibitor, partial curve, poor fit].

Question: Which Potency does the source give for `CC(C)Oc1ccc(C(=O)Nc2nc3ccccc3[nH]2)cc1` here?
Answer: The Potency was active: 0.12 µM.

Question: How did the Potency turn out when `Cc1ccc(C(=O)c2c(C)oc3c2C(=O)C(=O)c2ccccc2-3)cc1` was run?
Answer: The Potency was “inactive”.

Question: `Ic1ccc(N2CCN(Cc3c[nH]c4ncccc34)CC2)cc1` was tested. Which Potency did it give?
Answer: Its Potency is inconclusive: 2.69 µM [inhibitor, full curve, poor fit].

Question: `CC(C)(C)c1ccc(NC(=O)C(=O)C2C(=O)Nc3ccccc32)cc1` (centres undefined) was tested. Which Potency did it give?
Answer: The Potency was active: 12 µM.

Question: How did the Potency turn out when `CN1CCC(=NNC(=O)c2ccc(N(Cc3ccc(Cl)cc3)S(C)(=O)=O)cc2)CC1` was run?
Answer: The Potency was “inactive”.

Question: With `COc1cc(/C=N\Nc2nc(-c3ccc(C)cc3)c(NC(C)=O)s2)ccc1O` as the compound, how does the Potency read?
Answer: Its Potency is inconclusive: 9.53 µM [inhibitor, partial curve, poor fit].

Question: `Cc1ccc(C(=O)c2coc3cc([N+](=O)[O-])c(O)c([N+](=O)[O-])c23)cc1` was tested. Which Potency did it give?
Answer: Its Potency is inconclusive: 23.9 µM [inhibitor, single point].

Question: For `CCOc1ccc(N=CNc2ccc(OCC)cc2)cc1`, which Potency is on record?
Answer: The Potency was inconclusive: 15.1 µM [inhibitor, partial curve].

Question: With `C=CCN=C1S/C(=C\c2ccc(Cl)cc2)C(=O)N1CC=C` as the compound, how does the Potency read?
Answer: Its Potency is inconclusive: 23.9 µM [inhibitor, single point].

Question: Which Potency does the source give for `COC(=O)c1oc(-c2ccc(Cl)cc2)nc1C` here?
Answer: Its Potency is inconclusive: 23.9 µM [inhibitor, partial curve].

Question: How did the Potency turn out when `CCCN1C(=O)C(O)(CC(=O)c2ccc(CC)cc2)c2cc(Br)ccc21` (centres undefined) was run?
Answer: Its Potency is “inactive”.

Question: For `COc1ccc(OC)c(S(=O)(=O)Nc2ccc(-c3ccc4nnc(C)n4n3)cc2)c1`, which Potency is on record?
Answer: The Potency was “inactive”.

Question: How did the Potency turn out when `O=[N+]([O-])c1ccc(N=NNc2ccccc2)cc1` was run?
Answer: Its Potency is inconclusive: 19 µM [inhibitor, partial curve, poor fit].

Question: With `CN(C)c1ccc(-c2ccc3c(=O)c4ccccc4n(C)c3c2)cn1` as the compound, how does the Potency read?
Answer: Its Potency is active: 4.78 µM.

Question: How did the Potency turn out when `CC1CC1c1ccc(/C=C(\C#N)C(=O)Nc2cccc(Cl)c2Cl)o1` (centres undefined) was run?
Answer: Its Potency is inconclusive: 23.9 µM [inhibitor, partial curve, poor fit].

Question: With `COc1ccccc1-c1c(C)nn2c(-c3ccccc3)cc(C)nc12` as the compound, how does the Potency read?
Answer: The Potency was inconclusive: 37.9 µM [inhibitor, single point].

Question: `CC(C)(C)C(=O)Nc1nnc(SCC(=O)NC2CC2)s1` was tested. Which Potency did it give?
Answer: Its Potency is “inactive”.

Question: How did the Potency turn out when `O=C(COc1ccc(Cl)cc1)Nc1sc2c(c1C(=O)Nc1cccc(Cl)c1)CCCC2` was run?
Answer: The Potency was inconclusive: 8.49 µM [inhibitor, partial curve, poor fit].

Question: With `COc1ccc(C(=O)Nc2ccccc2C(N)=O)cc1` as the compound, how does the activity change, negative = inhibition read?
Answer: Its activity change, negative = inhibition is inactive: -22.5% [at 2.3 µM].

Question: `O=C(Oc1ccccc1C(=O)Nc1ccccc1)c1ccccc1Br` was tested. Which Potency did it give?
Answer: Its Potency is active: 16.9 µM.

Question: How did the Potency turn out when `O=[N+]([O-])c1ccc2nc(/C=C/c3ccc(Cl)cc3)[nH]c2c1` was run?
Answer: The Potency was active: 5.36 µM.

Question: `COc1ccc(OCC(=O)Nc2cccc3cccnc23)cc1` was tested. Which Potency did it give?
Answer: Its Potency is inconclusive: 26.9 µM [inhibitor, single point].

Question: Which Potency does the source give for `Cc1cccc(N2CCN(C(=O)c3cc4c(=O)n(C)c5ccccc5c4n3C)CC2C)c1` (centres undefined) here?
Answer: Its Potency is “inactive”.

Question: `Cc1c(C(=O)Nc2ccc(-c3nnc4n3CCCCC4)cc2)oc2c1ccc1ccccc12` was tested. Which Potency did it give?
Answer: Its Potency is inconclusive: 19 µM [inhibitor, partial curve].

Question: For `CCOC(=O)N1CCc2c(sc(NCc3sccc3C)c2C(=O)Nc2cc(OC)ccc2OC)C1`, which Potency is on record?
Answer: The Potency was inconclusive: 12 µM [inhibitor, partial curve, poor fit].

Question: With `COc1cccc(C(=O)Nc2ccc3c(c2)C(=O)N(CC2CCCO2)C3=O)c1` (centres undefined) as the compound, how does the Potency read?
Answer: The Potency was active: 9.53 µM.

Question: For `O=C(/C=C/c1cccs1)NC(=S)Nc1ccc(C(=O)O)cc1`, which Potency is on record?
Answer: The Potency was inconclusive: 37.9 µM [inhibitor, partial curve, poor fit].

Question: How did the Potency turn out when `COc1cccc(NC(=O)CSc2cc(=O)n(C)c3ccc(Cl)cc23)c1` was run?
Answer: The Potency was “inactive”.

Question: For `COC(=O)CS(=O)(=O)c1cc([N+](=O)[O-])ccc1NC(=O)OC`, which Potency is on record?
Answer: The Potency was “inactive”.

Question: With `CCCCOc1cccc(C(=O)Nc2ccc(S(=O)(=O)Nc3nnc(CC)s3)cc2)c1` as the compound, how does the Potency read?
Answer: The Potency was inconclusive: 37.9 µM [inhibitor, partial curve, poor fit].

Question: `O=C(Nc1nnc(-c2ccccc2)s1)c1ccccc1F` was tested. Which Potency did it give?
Answer: Its Potency is active: 10.7 µM.

Question: Which Potency does the source give for `CC(=O)c1sc2nc(-c3ccco3)ccc2c1N` here?
Answer: The Potency was active: 3.79 µM.

Question: With `O=C(NC(=O)c1ccccc1O)c1ccc2c(c1)CCO2` as the compound, how does the Potency read?
Answer: The Potency was active: 1.2 µM.

Question: Which Potency does the source give for `Cc1nc2c(C(=O)NCc3ccccc3Cl)c[nH]n2c(=O)c1Cc1cccc(Cl)c1` here?
Answer: Its Potency is inconclusive: 30.1 µM [inhibitor, partial curve].

Question: `N#C/C(=C\c1ccccn1)c1ccccn1` was tested. Which Potency did it give?
Answer: Its Potency is inconclusive: 30.1 µM [inhibitor, partial curve, poor fit].

Question: `NC(=O)COC(=O)CNC(=O)c1sc2ccccc2c1Cl` was tested. Which Potency did it give?
Answer: Its Potency is inconclusive: 21.3 µM [inhibitor, single point].

Question: For `CC(NC(=O)CSc1n[nH]c(-c2ccccc2Cl)n1)c1nc2ccccc2n1C` (centres undefined), which Potency is on record?
Answer: Its Potency is “inactive”.

Question: How did the Potency turn out when `CCN(CC)S(=O)(=O)c1cc(C(=O)OCC(=O)NC(=O)c2cccn2C)ccc1C` was run?
Answer: The Potency was “inactive”.

Question: Which Potency does the source give for `COc1ccc(-c2c(C)nn3c(-c4ccccc4)cc(C)nc23)cc1` here?
Answer: Its Potency is “inactive”.

Question: Which Potency does the source give for `COc1c(C)cc(S(=O)(=O)Nc2cccc(-c3ccc(N4CCOCC4)nn3)c2)c(C)c1C` here?
Answer: The Potency was active: 15.1 µM.

Question: How did the Potency turn out when `COc1cc(/C=C/C(=O)OCC(=O)N(C)CC(=O)Nc2ccc(F)cc2)ccc1OC(F)F` was run?
Answer: Its Potency is “inactive”.

Question: `CC1CCc2c(sc3ncn(CC(=O)N=Nc4c(O)[nH]c5ccccc45)c(=O)c23)C1` (centres undefined) was tested. Which Potency did it give?
Answer: The Potency was “inactive”.

Question: For `CCCCCCCCCCOC(=O)NC1CCS(=O)(=O)C1` (centres undefined), which Potency is on record?
Answer: The Potency was “inactive”.

Question: `CCc1nn2c(-c3ccccc3OC)ccnc2c1-c1ccc(F)cc1` was tested. Which Potency did it give?
Answer: The Potency was “inactive”.

Question: How did the Potency turn out when `CCN(CC)CCn1c(=S)[nH]c2cc(C(=O)NCc3ccc(C)cc3)ccc2c1=O` was run?
Answer: Its Potency is “inactive”.

Question: `CCCn1nnnc1SCC(=O)N1CCCc2ccccc21` was tested. Which Potency did it give?
Answer: Its Potency is inconclusive: 37.9 µM [inhibitor, single point].

Question: How did the Potency turn out when `Oc1c(C(c2ccccc2F)N2CCOCC2)sc2nc(-c3ccco3)nn12` (centres undefined) was run?
Answer: The Potency was “inactive”.

Question: Which Potency does the source give for `CC(=O)c1cc(C(=O)c2ccccc2)sc1Nc1ccccc1` here?
Answer: The Potency was inconclusive: 23.9 µM [inhibitor, single point].

Question: For `CCOc1ccc(S(=O)(=O)N(CC(=O)Nc2cccnc2)c2ccccc2)cc1`, which Potency is on record?
Answer: The Potency was inconclusive: 37.9 µM [inhibitor, partial curve, poor fit].

Question: Which Potency does the source give for `O=C(Nc1ccc(OCc2ccccc2)cc1)Nc1cccnc1` here?
Answer: Its Potency is inconclusive: 8.49 µM [inhibitor, partial curve, poor fit].

Question: For `Cc1cc(N2CCN(C)CC2)nc2ccc(NC(=O)Nc3ccccc3Br)cc12`, which Potency is on record?
Answer: The Potency was active: 1.51 µM.

Question: How did the Potency turn out when `COc1cc(/C=C(\C#N)C(=O)NCC2CCCO2)ccc1OCCC(C)C` (centres undefined) was run?
Answer: The Potency was inconclusive: 37.9 µM [inhibitor, partial curve, poor fit].

Question: `Cc1ccc2cc(CCNS(=O)(=O)c3ccc(Br)cc3)c(=O)[nH]c2c1C` was tested. Which Potency did it give?
Answer: The Potency was “inactive”.

Question: With `CCOc1ccccc1CNC(=O)Cn1ccc2cc(S(=O)(=O)N3CCC(C)CC3)ccc21` as the compound, how does the Potency read?
Answer: Its Potency is “inactive”.

Question: Which Potency does the source give for `COc1ccc(C(=O)Nc2cc(OC)c(Cl)cc2OC)cc1` here?
Answer: The Potency was active: 21.3 µM.

Question: `N/C(=N\OC(=O)CC(c1ccccc1)c1ccccc1)c1cccnc1` was tested. Which Potency did it give?
Answer: The Potency was “inactive”.

Question: For `CCOc1ccccc1NC(=O)c1c(NC(=O)CCC(=O)O)sc2c1CCCCC2`, which Potency is on record?
Answer: The Potency was inconclusive: 37.9 µM [inhibitor, partial curve, poor fit].

Question: For `O=C(Nc1nc(-c2nc3ccccc3s2)cs1)c1ccc(S(=O)(=O)N2CCOCC2)cc1`, which Potency is on record?
Answer: The Potency was inconclusive: 16.9 µM [inhibitor, partial curve].

Question: `O=S(=O)(CC(c1ccccc1)N1CCCCC1)c1ccc(Cl)cc1` (centres undefined) was tested. Which Potency did it give?
Answer: The Potency was “inactive”.

Question: Which Potency does the source give for `NC(=O)c1ccsc1NC(=O)COC(=O)c1ccc(Cl)c(N)c1` here?
Answer: Its Potency is inconclusive: 3.79 µM [inhibitor, full curve].

Question: `CSCCCNC(=S)N1CCc2ccccc2C1` was tested. Which Potency did it give?
Answer: The Potency was inconclusive: 30.1 µM [inhibitor, partial curve, poor fit].

Question: With `COc1ccc(N2CCN(C(=O)CCc3c(C)nc4c(-c5ccccc5)c(C)nn4c3C)CC2)cc1` as the compound, how does the Potency read?
Answer: Its Potency is “inactive”.

Source: PubChem BioAssay AID588342 (National Center for Advancing Translational Sciences (NCATS), 2011)
